Source: ChEMBL document CHEMBL4888484, “Replenishing the malaria drug discovery pipeline: Screening and hit evaluation of the MMV Hit Generation Library 1 (HGL1) against asexual blood stage Plasmodium falciparum ,using a nano luciferase reporter read-out” (2022)
Among all 150,000 compounds or so, about 540 (0.36%) showed an effect of 50% or more. Some of the results follow.

System: Plasmodium falciparum
Experiment: Primary screen in NF54 nanoGlo assay, in single point, at 2uM, 72h; a lower Z score goes with more inhibition
Type: functional, Erythrocyte
Details: timepoint 72 hour

SMILES	% Inhibition [%]	Z score
COc1ccc(C(=O)N2CCC3(CC2)[C@@H](OC)CN3c2cccc(F)c2)c(OC)c1	-11	1.45
CCCCN(CC(=O)N(Cc1ccco1)C[C@H]1CCCO1)C(=O)NC(C)(C)C	-8	1.08
Cc1nc2c(c(-c3ccncc3F)n1)CCC2	-15	2.8
CN=C(NCc1csc(C2CC2)n1)N[C@@H](C)c1ccc(C)o1	-9	0.96
CC(=O)N1CC[C@@]2(O)CCN(CC(=O)Nc3ccc(C)c(C)c3)C[C@H]2C1	-8	1.03
COc1ccc(NCc2cc3ccccc3o2)cn1	-9	1.01
COc1nc2c(cc1CNC(=O)CCn1cccn1)C(=O)N(C1CCCC1)C2	-23	2.93
Cn1nc(C2CC2)cc1N1CCN(C(=O)c2noc3c2CCCC3)CC1	4	-0.55
Cn1cc(C(=O)N2CCc3c(C#N)cccc32)c(C2CC2)n1	-4	0.69
OC1(C(F)(F)F)CCN(Cc2cnc3cnccn23)CC1	-2	0.41
CCOc1cccc(CNC(=O)C2CC=CC2)c1	-3	0.5
Cc1cc(C)c(CNCCS(=O)(=O)N2CCCC2)c(C)c1CO	-15	2.19
COCCCNC(=O)[C@@H]1CCCCc2nn(Cc3cccc(F)c3)c(=O)n21	-15	1.43
Cc1csc([C@H](C)N(C)c2nc3c(s2)c(C)nn3C)n1	-18	1.66
Cc1cc(NC(=O)c2cc(C(C)C)[nH]n2)n(C)n1	15	-2.27
C[C@H]1CN(CCNC(=O)Nc2ccns2)CCO1	-4	0.76
O=c1cc(N2CCNCC2)cnn1Cc1csc(-c2ccccc2)n1	5	-0.62
COc1cccc(Cn2nccc2NC(=O)c2scnc2C)c1OC	-4	0.6
O=C1CN(c2ccc(NC(=O)c3cccs3)cn2)CCN1	2	-0.27
CCCc1cc([C@@H]2CCCN2Cc2ccc(OCC)c(OC)c2)no1	-9	1.19
O=C(NC[C@H]1CC2c3ccccc3C1c1ccccc12)N(CCO)C1CC1	1	-0.12
COc1ccc(-c2cnc3ncnn3c2N2CCCN(C(=O)Nc3cc(OC)c(OC)c(OC)c3)CC2)cc1	21	-2.04

SMILES	% Inhibition [%]	Z score
O=C(NC(C1CCC1)C1CCC1)[C@H]1CCS(=O)(=O)C1	-2	0.22
O=C(c1cccs1)N1CCc2sc(Cl)cc2C1	-12	1.35
CCCN(Cc1c(-c2ccccc2)nn(C)c1Oc1ccc(Cl)cc1)C(=O)c1ccco1	-20	1.77
Cc1cc(C(=O)N2CCC[C@H](c3nc(C4CCOCC4)no3)C2)nn1C	-12	1.74
Cc1cc(NC(=O)NCC(C)(C)[C@@H](O)C(C)C)nn1C	-5	0.71
CS(=O)(=O)CCN(C(=O)c1csc([C@@H]2CCCO2)n1)C1CC1	-6	0.77
Cc1noc(C)c1C(=O)N[C@H](c1ccccc1)C1CC1	-5	0.89
COc1cncc(C(NS(=O)(=O)N2CCCCCC2)[C@H]2C[C@H](O)C2)c1 (some centres undefined)	-7	1.08
Cn1cc(-c2nccnc2CNC(=O)c2ccncc2F)cn1	-13	1.5
CCNc1ccc(Cl)cc1C(=O)OCCOCC	-10	1.01
O=C(c1ccncc1)N1C[C@H](O)[C@@H](N2CCN(c3ccccn3)CC2)C1	1	-0.19
NC[C@H]1Cn2cccc2CN1Cc1ccccc1	0	0.06
Cc1ccc(OC2CCN(C(=O)Nc3ccccc3C)CC2)nn1	-11	2.09
Cc1sc(C)c(S(=O)(=O)NC2CCC(C)CC2)c1-c1ccno1 (centres undefined)	-16	2.81
CC(C)(C)n1cc(CNCC(F)(F)CO)nn1	-17	2.38
O=C(NCc1cccc(CN2CCCC2=O)c1)[C@@H]1CCc2cccnc21	-8	1.01
O=C(NCC#CCN1CCc2ccccc2C1)c1cccc(F)c1	0	0.05
CCCNC(=O)COc1ncnc2onc(-c3ccccc3)c12	-7	1.08
COCCOCc1nc(Cc2cccs2)nn1C1Cc2ccccc2C1	6	-1.23
CC(O)CNS(=O)(=O)N1CC(C)CC(C)C1 (centres undefined)	27	-3.03
CCc1nc(N)nc(NCCc2noc(C3CCC3)n2)c1C	-9	1.33
O=S(=O)(c1ccc(Cl)s1)N1CCC[C@H]1c1nc2ccccc2s1	-3	0.51

SMILES	% Inhibition [%]	Z score
CCOc1ccccc1NC(=O)CN1CCN(Cc2ccccc2)S1(=O)=O	-21	1.81
Nc1c(Br)cc(/C=C2\C=Cc3ccccc32)cc1Br	-4	0.43
CN(Cc1cnccn1)S(=O)(=O)c1cc(Cl)c(N)c(Cl)c1	-23	4.46
CCc1ccc(S(=O)(=O)Nc2ccc(N3CCCCC3=O)c(OC)c2)s1	-16	2.41
O=C(C1CCC1)N1CC(c2nc(-c3ccncc3)no2)C1	-9	1.67
COc1ccc(-c2ccno2)cc1S(=O)(=O)N[C@@H](C)c1nncn1C	-7	1.04
CCOC(=O)N1CCC(N2C(=O)c3ccc(C(=O)NCCCc4ccccc4)cc3C2=O)CC1	-6	0.97
COCc1ccnc(NC(=O)N[C@@H](CO)C(C)(C)C)n1	-4	0.47
CC(=O)Nc1nc2ccc(NC(=O)Nc3cccc(Cl)c3)cc2s1	12	-1.96
Cn1cnc(C(=O)N2CCC[C@H](CC(F)(F)F)C2)c1	-15	2.5
O=c1cccc2n1CCCN2Cc1ccccc1Cl	-3	0.4
N#Cc1ccc2c(c1)N(C(=O)C1CCCC(F)C1)CC(=O)N2 (centres undefined)	9	-1.4
CNC(=O)c1sc(Nc2cccnc2)nc1C	-15	2.15
O=C(NCc1nccnc1-c1ccco1)Nc1nc(C2CC2)cs1	6	-0.85
CCN1CCCn2cc(S(=O)(=O)NCc3cccc(F)c3)cc2C1=O	-22	2.56
CC(C)[C@H](NC(=O)c1ccccc1Br)C(=O)NCc1nnc2ccccn12	-10	1.21
O=C1CN(c2ncnc3c2CCCC3)CCN1	-7	0.94
O=C(Cn1c(=O)ccc2cc(S(=O)(=O)N3CCCC3)ccc21)NCc1ccc2c(c1)OCO2	-8	1.02
O=C(Nc1ccc2c(c1)OCO2)N1CC(O)CC1CO (centres undefined)	-6	0.89
CN1CC(C(=O)N2CCCC(Cc3nc(-c4cnccn4)no3)C2)CC1=O (centres undefined)	13	-1.77
COc1cccc(C(=O)N(CCCN2CCN(C)CC2)C2CCOCC2)c1OC	-5	0.84
O=C(Cc1cccs1)NCc1ccc(-c2nc(C3CC3)no2)s1	5	-0.88

SMILES	% Inhibition [%]	Z score
Cc1cn(-c2c(F)cccc2F)nc1C(=O)Nc1ccc(N(C)C)cn1	-6	0.7
CCn1c(CCc2cccc(NC(=O)Nc3cccc(F)c3)c2)nc2ccccc21	0	-0.01
CCCS(=O)(=O)N1CCC2(CC1)C[C@@H](N1CCN(c3ccccc3)CC1)CCO2	-14	1.55
CCc1cnc(CCN2C(=O)N[C@@H](C(C)(C)C)C2=O)s1	1	-0.07
CCCCN(CCO)C(=O)Nc1nn(CC(F)(F)F)cc1Cl	-10	1.03
Cc1c(NC(=O)CNC(=O)Cc2ccccc2)c(=O)n(-c2ccccc2)n1C	-16	2.65
Cc1ccc(C(=O)Nc2nccnc2C(=O)N2CCN(c3ccccc3)CC2)cc1	-9	1.4
CCN(C)c1nc(N2CCN(c3ccc(C)cc3)CC2)nc2c1CN(C(=O)c1ccccc1C)CC2	-11	1.11
c1cc(CNCc2csc(C3CC3)n2)cc(N2CCCCCC2)n1	-4	0.8
O=S(=O)(Nc1nnc(-c2ccsc2)s1)c1cccnc1	-4	0.56
CCc1nnc(NC(=O)COC)s1	5	-0.76
C[C@]1(c2cc(F)cc(F)c2)NC(=O)N(Cc2ccccn2)C1=O	-5	0.59
CC1CCCC(C#N)(NC(=O)c2ccc3c(c2)OCCO3)C1 (centres undefined)	-7	0.76
Cc1ncoc1C(=O)NC(Cc1ccncc1)[C@H]1C[C@H](O)C1 (some centres undefined)	-12	1.27
C[C@]1(C(=O)O)CCN(C(=O)c2cccc3[nH]ccc23)C1	-20	1.87
Cc1cnc(N[C@@H](C)C(=O)NC(C)(C)C)nc1	-11	1.73
CCN1C[C@@H](c2ccccc2)CC2(CCN(Cc3coc(C)n3)CC2)C1	-12	1.01
Cc1c[nH]c(CN2CCC(CNC(=O)[C@H]3CCOC3)CC2)n1	0	-0.05
O=C(NC1CCCCCC1)C1CCN(c2ccc3nncn3n2)CC1	-17	2.09
Cn1nc(NCc2ncc(Cl)n2C)cc1C(F)(F)F	-2	0.43
COc1ccccc1-c1cc(C(=O)NCCc2ccccc2)c2c(-c3ccccc3)[nH]nc2n1	-19	2.54
